Laboratory results published in the supplement of paper PMC10126150.
Sequences with one replicate were seen in a single cluster, so their values are uncertain.

System: ATP
Assay: switch fluorescence ratio, 500 uM ATP over buffer (Cy3 cluster intensity, sum of 5 cycles each) (fold (ratio)); higher = stronger signal-on switching upon ATP binding; sequences stand for … in TCGTCGGCAGCGTCAGATGTGTATAAGAGACAGTTTTTTTTTTTTTTTTTTTTTTTTT…TC
Conditions: aptamer strand: ATP DNA aptamer (quencher-CACCTGGGGGAGTATTGCGGAGGAAGG + anchor), 100 nM annealed; ATP concentration: 500 uM; one replicate
Outline: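 Clusters carrying Cy3-labelled switching strands on a modified Illumina MiSeq flow-cell were annealed to 100 nM quencher-labelled ATP aptamer and imaged in selection buffer. They were imaged again after 15 min with 500 uM ATP at 22 °C, over five buffer/ATP cycles with NaOH stripping and re-annealing in between. For each cluster, the fluorescence ratio is the summed Cy3 intensity of the target cycles divided by that of the buffer cycles, averaged per switch-domain sequence. Clusters outside 100-1000 RFU were left out.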
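Also: ATP exposure 15 min at 22 °C before imaging.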

Row | Sequence | switch fluorescence ratio
1 | CCTCTCGTTA | 3.33
2 | TAACGTCGTG | 0.976
3 | AACATGAGCT | 1.05
4 | GAAATTGCGT | 0.98
5 | GGTCCCAGTC | 1.09
6 | TCACGAAGAA | 0.974
7 | TTGAGGCTGG | 1.02
8 | TATCATTCCT | 0.99
9 | AGACCTAGCT | 1.04
10 | CTTGTGGGA | 0.978
11 | ATCTGTCAGA | 0.967
12 | CGGTTGTAT | 1
13 | CACTGGCCCT | 1.05
14 | TCCGTCATCT | 1.07
15 | TTTTAGCGCA | 1.04
16 | GGTAGCGGGC | 0.956
17 | TATCCGTTT | 1.04
18 | CGGTGGTGAC | 0.973
19 | GACAGCCATT | 1.1
20 | TTTTCTCCAT | 1.02
21 | AGATCCGGGC | 1.02
22 | ATGCAATTAA | 1.09
23 | AAGATAATGG | 1.02
24 | ACGTGGGTGG | 1.1
25 | ACTGAGCATA | 1.47
26 | CGCAGACTTT | 1.23

Row | Sequence | switch fluorescence ratio
27 | GAATCCTAG | 0.961
28 | GGTTGCAGAC | 1.02
29 | ACCAGGCACA | 1.12
30 | CACAGGGGGC | 1.14
31 | CCTGACATGT | 1.02
32 | TCAGTATTGT | 0.963
33 | ACTGCGTACG | 1.03
34 | TGACCCTCTT | 1.01
35 | TGAGGAGGT | 1.03
36 | GCTTCTTGGT | 0.979
37 | CAAGATATTG | 0.948
38 | AAAGAAACCA | 0.96
39 | CGTGA | 1.66
40 | GGGTAAAATT | 0.947
41 | GTGTCGACCT | 1.02
42 | CCTAACGGCG | 1.01
43 | TGCAGGGGAC | 1.06
44 | GGGAGCGATA | 1.08
45 | TTTGGGTGAA | 1.03
46 | GAGGGCCCAT | 0.974
47 | TGCAGCGGCG | 1
48 | CGATACACTT | 1.06
49 | GCTGTTTCTT | 0.977
50 | CACAAAGGTG | 1.98
51 | CTCCCGGGG | 1.15
52 | AACCGATGGA | 0.978

Row | Sequence | switch fluorescence ratio
53 | CCGCGTTCGG | 1.1
54 | AGACGCTGG | 0.924
55 | CGGTGCGTCA | 0.989
56 | ATGGATGTGT | 1.05
57 | TTTACAGTTT | 1.05
58 | CCTTTGACCG | 1.09
59 | TGTGGATTT | 1.03
60 | TTATGGGCGC | 1.03
61 | CTACGAAGAT | 1.06
62 | GTACAAGCC | 0.987
63 | TTCATGGGTA | 0.98
64 | GCTATTCAAA | 0.992
65 | TACGTAGGTA | 1.01
66 | CAGTAGGAGA | 1.03
67 | TGTGAGCACC | 1.15
68 | TATTCACTGT | 1.03
69 | CGGGTACAC | 0.977
70 | TAATATTCCT | 1.04
71 | GTCGGCGGTA | 1.02
72 | CTTTGCCGCT | 1.01
73 | ACAGGGTTTT | 1.01
74 | CGCGGGCAAA | 1.07
75 | TAACTGTACA | 1.39
76 | CAGTAATGAA | 1.03
77 | ATTGACACCT | 1.23
78 | GACACTGACT | 1.3

Row | Sequence | switch fluorescence ratio
79 | GTAATATATG | 0.981
80 | CCTTATGATA | 0.904
81 | AAGTAGGCGT | 0.983
82 | AGGTCAGGAA | 0.961
83 | GGGCCATACA | 0.997
84 | TATGCAGGGG | 0.982
85 | ACGCGTGTAG | 1.03
86 | AGTCTTGTGT | 0.998
87 | GTCACTCCCC | 2.29
88 | GTCCTCGCCG | 0.948
89 | ACAATACATT | 1.12
90 | GGATTATAAC | 0.995
91 | ATTCTTCTTG | 0.931
92 | GCATAGCGTA | 1.03
93 | CCATCCCAAG | 1.56
94 | TTTATGCCTC | 0.973
95 | CGAATTCGGT | 1.02
96 | TTTCGCCAGG | 1.45
97 | GTGATTTCGT | 0.973
98 | GTTCTACACA | 1.05
99 | TGAATCTGTG | 1.03
100 | ATGTTGGCGG | 1
101 | AGAAAAGCGA | 1.01
102 | TTCGTTGGAG | 0.947
103 | TGTATCGATA | 0.999
104 | CTGTGCGCAT | 1.9

Row | Sequence | switch fluorescence ratio
105 | CTCTTTATTA | 1
106 | AATTACAGGA | 1.02
107 | GTAGCCGGTT | 1.1
108 | AGTATAGGCC | 0.929
109 | GTGTAGCCTA | 1.01
110 | AGGTCGGATT | 1
111 | CGATTGACCC | 1.08
112 | CTCCTTTGTC | 1.03
113 | GCTTCCGGGC | 1.31
114 | CCTATGCTAG | 1.34
115 | ATTATTTCAC | 1.02
116 | GTCAATGACC | 0.991
117 | AACTGCGGTT | 1.01
118 | GCAGCAGACT | 2.89
119 | AAGTCAGCAG | 0.996
120 | CGAGGACAGC | 1.06
121 | AGGAATATGA | 1.02
122 | TGTTCACTG | 1.02
123 | GTTCTTCGGA | 0.997
124 | CTACGCTAGG | 2.41
125 | TCGTCTATTA | 1.04
126 | TACGTACAAA | 1.42
127 | CCCGCCCTCG | 2.67
128 | TTTTCAGTGA | 0.961
129 | CGTTACGGAG | 0.977
130 | GTAGTAGGTT | 0.985

Row | Sequence | switch fluorescence ratio
131 | GATGAAGAAT | 1.01
132 | GCGGACGAGC | 1.07
133 | GGGATTCGGC | 1.01
134 | GCTTCCGAAC | 3.41
135 | TCAAACATA | 1.01
136 | CGAGTAAGTC | 1.08
137 | ATTAGGCCTG | 1.01
138 | GCGGTTTACC | 0.98
139 | CTGGGGACGA | 0.998
140 | AAAAAACCGG | 1
141 | AACTGAATAA | 1.07
142 | ACGCGGAGC | 1
143 | GGGTCCCGTG | 1.08
144 | GGCGATTACT | 1.05
145 | ATGCTCAGTG | 1.04
146 | GAGGAGTGTA | 0.961
147 | GGGTTATCGA | 0.961
148 | GATTTACTCA | 1.02
149 | GTAATCTACG | 1.02
150 | GTAAGCGTAG | 0.965
151 | ATAGAACACA | 0.988
152 | GTAAGTTCCG | 0.963
153 | CTTTCCCGCG | 1.6
